Laboratory results published in PubChem BioAssay AID504332 (National Center for Advancing Translational Sciences (NCATS), 2011).
Hit rate of the full screen: of about 350,000 compounds, about 31,000 (8.9%) were called active. The inconclusive results got no clear call from the source; some entries with a clear call stand among them for comparison. The call rests on the fitted dose curve; in most records, active means well fitted inhibition curve with a large enough effect; inconclusive means small, poorly fitted or top-dose-only effect; inactive means no such curve, though single readings can be large or run the other way. Potencies of inconclusive entries are doubtful fits and often do not repeat. Some compounds were tested as several samples or in several runs, with calls that do not always agree.

target: Histone-lysine N-methyltransferase EHMT2 (Homo sapiens) (UniProt Q96KQ7); test: qHTS Assay for Inhibitors of Histone Lysine Methyltransferase G9a; details: G9a H3K9 monomethylation, AlphaScreen, 2 h; activity, negative = inhibition: at 59 µM (top of the series) unless noted; further: nearly all actives have a fitted effect of over 75% in size
Method in brief: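 G9a (20 nM) was preincubated 15 min with compound, then reacted 2 h at room temperature with 500 nM biotin-H3K9 peptide and 20 µM SAM. Monomethyl-H3K9 detected by AlphaScreen using anti-H3K9me1 antibody.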
On the % scale 0 is the no-effect control and ±100 the full control effect; potency means the concentration at half of the fitted maximal effect; tags describe the fitted curve by direction and shape.

Sequence of UniProt Q96KQ7 (Q96KQ7 whole entry, looked up): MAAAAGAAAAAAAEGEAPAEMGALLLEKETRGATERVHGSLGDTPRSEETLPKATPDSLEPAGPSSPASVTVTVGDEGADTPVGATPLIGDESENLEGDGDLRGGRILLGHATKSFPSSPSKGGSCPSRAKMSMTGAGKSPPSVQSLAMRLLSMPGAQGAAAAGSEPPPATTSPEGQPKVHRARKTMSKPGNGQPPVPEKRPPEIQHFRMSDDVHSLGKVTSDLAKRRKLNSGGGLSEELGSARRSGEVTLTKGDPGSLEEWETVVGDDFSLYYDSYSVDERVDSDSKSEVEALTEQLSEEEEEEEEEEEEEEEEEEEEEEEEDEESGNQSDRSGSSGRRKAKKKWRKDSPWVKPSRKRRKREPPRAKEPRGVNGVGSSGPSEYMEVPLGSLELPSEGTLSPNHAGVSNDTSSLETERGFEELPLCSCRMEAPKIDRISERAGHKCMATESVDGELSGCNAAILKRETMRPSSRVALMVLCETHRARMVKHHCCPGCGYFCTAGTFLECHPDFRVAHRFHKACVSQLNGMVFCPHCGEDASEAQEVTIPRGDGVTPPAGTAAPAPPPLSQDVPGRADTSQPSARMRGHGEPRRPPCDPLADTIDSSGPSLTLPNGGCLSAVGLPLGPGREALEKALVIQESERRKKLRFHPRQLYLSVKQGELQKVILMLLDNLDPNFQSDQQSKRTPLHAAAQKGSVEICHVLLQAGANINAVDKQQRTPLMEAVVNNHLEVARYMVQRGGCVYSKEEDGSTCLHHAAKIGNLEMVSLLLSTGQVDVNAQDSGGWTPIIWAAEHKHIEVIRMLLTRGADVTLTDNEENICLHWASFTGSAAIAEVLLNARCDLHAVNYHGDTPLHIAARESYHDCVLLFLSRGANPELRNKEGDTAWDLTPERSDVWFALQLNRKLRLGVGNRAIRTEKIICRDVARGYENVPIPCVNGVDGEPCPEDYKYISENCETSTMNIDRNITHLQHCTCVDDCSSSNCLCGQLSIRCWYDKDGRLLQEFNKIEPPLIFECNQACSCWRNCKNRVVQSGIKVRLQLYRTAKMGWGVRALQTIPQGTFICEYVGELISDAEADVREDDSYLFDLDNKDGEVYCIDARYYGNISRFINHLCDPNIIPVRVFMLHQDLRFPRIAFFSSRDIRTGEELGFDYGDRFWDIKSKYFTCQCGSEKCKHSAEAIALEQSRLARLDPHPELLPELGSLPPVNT

Row | Structure (SMILES) | activity, negative = inhibition | Potency
1 | CCc1ccc(OCC(=O)Nc2ccc3oc(=O)ccc3c2)cc1 | inactive: 8.71% [at 102 µM] | –
2 | Nc1nc2ccc(C(=O)Nc3ccccc3)cc2s1 | – | inconclusive: 79.4 µM [inhibitor, single point]
3 | Cc1cc(Br)ccc1SCC(=O)OCC(=O)NC1CCCC1 | – | inconclusive: 89.1 µM [inhibitor, single point]
4 | CCc1ccc(NC(=O)C(=O)NCCc2csc(-c3cccc(F)c3)n2)cc1 | inactive: 1.24% | –
5 | Cc1[nH][nH]c(=O)c1C(c1c(C)[nH][nH]c1=O)c1cn(Cc2ccc(Cl)c(Cl)c2)c2ccccc12 | – | active: 8.91 µM
6 | Cc1ccc(N2CC(C(=O)Oc3cccc(N4C(=O)CCC4=O)c3)CC2=O)cc1 (centres undefined) | inconclusive: -91% [inhibitor] | –
7 | Cc1cccc(NC(=O)C2CCN(c3nc(C)cc(C)n3)CC2)c1 | – | inconclusive: 89.1 µM [inhibitor, partial curve, poor fit]
8 | C1CNC(C23CC4CC(CC(C4)C2)C3)=N1 | – | inconclusive: 79.4 µM [inhibitor, partial curve, poor fit]
9 | Cc1cc(C)c(S(=O)(=O)NCCSCc2ccco2)c(C)c1 | inactive: 4.15% [at 12.7 µM] | –
10 | Cn1c(SCn2nnc3ccccc3c2=O)nc2ccccc2c1=O | – | active: 50.1 µM
11 | O=C1CCCc2c1cc(C(=O)Nc1ccc(Br)cn1)c(=O)n2-c1ccccc1 | inactive: -38.1% [at 12.7 µM] | –
12 | C/C(=N\NC(=O)CSc1nc2ccccc2o1)c1ccc(O)cc1 | – | active: 15.8 µM
13 | O=C(CSc1ccccc1C(=O)O)c1ccc([N+](=O)[O-])cc1 | – | active: 20 µM
14 | CCOc1ccc(C2=NNC(c3cccs3)=Nc3ccc(OCC)cc32)cc1 | – | inconclusive: 22.4 µM [inhibitor, single point]
15 | Oc1cc(O)c2c(c1)OC(c1cc(O)c(O)c(O)c1)C(O)C2 (centres undefined) | inconclusive: -68.8% [inhibitor] [at 2.33 µM] | –
16 | Cc1ccc2oc(=O)c3cnn(CC(=O)N4CCCc5ccccc54)c3c2c1 | inactive: -8.91% | –
17 | O=C(O)c1cccc(CN2C(=O)SC(Nc3ccccc3)C2=O)c1 (centres undefined) | – | inconclusive: 39.8 µM [inhibitor, single point]
18 | CC(=O)OCC(=O)[C@@]12OC(C)(C)OC1CC1C3CC(F)C4=CC(=O)C=C[C@@]4(C)[C@@]3(F)C(O)C[C@]12C (some centres undefined) | inactive: -41.2% [at 2.33 µM] | –
19 | CCOC(=O)/C(=N\Nc1ccc(Br)cc1)N1CCN(c2ccccc2OC)CC1 | – | active: 15.8 µM
20 | CCOc1cc(N2CCOCC2)c(OCC)cc1NC(=O)c1ccccc1 | – | inconclusive: 89.1 µM [inhibitor, single point]
21 | CC/C(=N\NC(=S)NC(C)C)c1ccc(OC(F)F)cc1 | – | inconclusive: 39.8 µM [inhibitor, partial curve]
22 | CC(=O)c1c(C)[nH]c(C(=O)OCC(=O)NCc2ccc3c(c2)OCO3)c1C | inactive: 13.7% [at 12.7 µM] | –
23 | O=C(CSc1ccccn1)N1CCCC(Nc2ccc(F)c(F)c2)C1 (centres undefined) | – | inconclusive: 79.4 µM [inhibitor, single point]
24 | CN(C)CCN(C(=O)CCc1ccccc1)c1nc2c(F)cc(F)cc2s1 | – | active: 50.1 µM
25 | Cc1ccc(C)c(NNC(N)=S)c1 | – | active: 35.5 µM

Row | Structure (SMILES) | activity, negative = inhibition | Potency
26 | COc1ccc(CC(=S)N2CCOCC2)cc1F | inactive: -0.94% | –
27 | O=C(CS(=O)(=O)c1ccccc1)NCc1ccco1 | inactive: -3.23% [at 102 µM] | –
28 | Cc1nnc(NC(=O)CSc2nnc(Cc3ccccc3)n2-c2ccccc2)s1 | – | inconclusive: 31.6 µM [inhibitor, single point]
29 | Cc1ccc(C(=O)C2=C(O)C(=O)N(c3ncccn3)C2c2ccccc2F)o1 (centres undefined) | – | inconclusive: 39.8 µM [inhibitor, partial curve, poor fit]
30 | CCCCc1cc(=O)oc2cc(OCC(=O)N(CC)CC)c(Cl)cc12 | – | inconclusive: 5.01 µM [inhibitor, full curve, poor fit]
31 | Cc1cc(C)c(NS(=O)(=O)c2cccc3cccnc23)c(C)c1 | – | inconclusive: 31.6 µM [inhibitor, partial curve, poor fit]
32 | O=C(N/N=C/C=C\c1ccccc1[N+](=O)[O-])c1ccccn1 | – | inconclusive: 1.78 µM [inhibitor, full curve, poor fit]
33 | Cc1ccn2c(Nc3ccccc3C)c(-c3ccc(N4CCOCC4)cc3)nc2c1 | – | active: 10 µM
34 | [N-]=[N+]=CC(=O)CC(c1ccccc1)N1C(=O)c2ccccc2C1=O (centres undefined) | – | inconclusive: 3.16 µM [inhibitor, partial curve, poor fit]
35 | CC1CN(C(=O)COC(=O)c2cc([N+](=O)[O-])ccc2Cl)CC(C)O1 (centres undefined) | – | inconclusive: 1.41 µM [inhibitor, partial curve, poor fit]
36 | CCOC(=O)N1CCC(Nc2c(NCCCN3CCN(c4ccc(OC)cc4)CC3)c(=O)c2=O)CC1 | – | inconclusive: 79.4 µM [inhibitor, single point]
37 | CNC(=O)NC(=O)C(NC1CCCc2ccccc21)c1ccccc1 (centres undefined) | – | inconclusive: 10 µM [inhibitor, partial curve, poor fit]
38 | O=C(CSc1ncnc2c1cnn2-c1ccc(F)cc1)NCC1CCCO1 (centres undefined) | – | inconclusive: 20 µM [inhibitor, full curve]
39 | Cn1cnc(S(=O)(=O)N2CCN(C(c3ccc(F)cc3)c3ccc(F)cc3)CC2)c1 | inactive: 15.2% [at 102 µM] | –
40 | COc1ccc(C(C)NC(=O)C2CCCC2)cc1OC (centres undefined) | inactive: 7.6% [at 102 µM] | –
41 | COc1ccccc1OCCn1c(C(C)O)nc2ccccc21 (centres undefined) | – | inconclusive: 79.4 µM [inhibitor, partial curve, poor fit]
42 | CN(C(=O)c1ccccc1)c1ccc(OCC(=O)NC2CCS(=O)(=O)C2)cc1 (centres undefined) | inactive: -18.4% [at 102 µM] | –
43 | O=C1/C(=C\c2cccc([N+](=O)[O-])c2O)SC(=S)N1Cc1ccccc1 | – | active: 2 µM
44 | Nc1nc(/C=C/c2cccnc2)nc(-c2ccccc2O)n1 | – | inconclusive: 50.1 µM [inhibitor, partial curve, poor fit]
45 | O=C(c1cc(C(F)(F)F)cc(C(F)(F)F)c1)N1CCC[C@@]2(CCN(Cc3ccncc3)C2)C1 | – | inconclusive: 6.31 µM [inhibitor, single point]
46 | CN(C)CC(O)Cn1c2ccc(Br)cc2c2cc(Br)ccc21 (centres undefined) | – | inconclusive: 14.1 µM [inhibitor, partial curve]
47 | Cc1c(N=CN2CCOCC2)c(=O)n(C)c(=O)n1C | – | inconclusive: 70.8 µM [inhibitor, partial curve, poor fit]
48 | COc1ccc(-c2ccn(-c3cccc(F)n3)n2)cc1 | – | active: 14.1 µM
49 | Cc1cc(C(=O)N/N=C/c2ccc(O)c(O)c2O)c(C)n1-c1ccccc1 | – | active: 10 µM
50 | Cc1ccc(NC(=O)C2CCN(C(=O)N3CCOc4ccccc43)CC2)cc1 | inactive: 17% [at 102 µM] | –

Row | Structure (SMILES) | activity, negative = inhibition | Potency
51 | Cc1ccc2c(C)ccc(O)c2n1 | – | active: 3.55 µM
52 | CCCN(CCC)CCCNC(=O)c1cn(CCOC)c(=O)c2c1c1ccccc1n2C | – | inconclusive: 100 µM [inhibitor, single point]
53 | O=C(O)c1ccccn1 | – | active: 0.562 µM
54 | Cc1ccc(Cl)cc1N1CCN(C(=O)c2cnn(C(C)(C)C)c2C2CCN(C(=O)OC(C)(C)C)CC2)CC1 | – | inconclusive: 31.6 µM [inhibitor, partial curve, poor fit]
55 | CNC(=S)N/N=C/c1cn(CCOc2ccc(OC)cc2)c2ccccc12 | inactive: 12.7% | –
56 | O=C(COc1ccccc1)NC(=S)N1CCc2ccccc21 | – | active: 28.2 µM
57 | COc1ccc(CNc2nc(-c3ccc(OC)cc3)cc(C(F)(F)F)n2)cc1 | inactive: 79.7% | –
58 | COc1ccc(NC(=O)Cn2c(=O)cc(C)c3c(C)nn(C)c32)cc1 | inactive: 6.25% | –
59 | CCCCn1c(SCC(=O)c2ccc3c(c2)OCCO3)nnc1-c1ccoc1C | – | inconclusive: 3.55 µM [inhibitor, single point]
60 | O=C(CN1CCN(c2ccccc2F)CC1)c1c[nH]c2ccc(F)cc12 | – | inconclusive: 39.8 µM [inhibitor, single point]
61 | Cc1cc(NC(=O)CCCn2cnc([N+](=O)[O-])n2)no1 | inactive: 1.79% [at 102 µM] | –
62 | Cc1ccc(C2c3c(C)nn(-c4ccc([N+](=O)[O-])cc4)c3N=C3C(=O)Nc4ccccc4N32)cc1 (centres undefined) | – | inconclusive: 89.1 µM [inhibitor, partial curve, poor fit]
63 | Cc1ccc(S(=O)(=O)Nc2c(O)c3ccccc3oc2=O)cc1C | – | active: 50.1 µM
64 | CC(=O)Oc1ccc(C(=C2CCCCC2)c2ccc(OC(C)=O)cc2)cc1 | inactive: -39.8% [at 12.7 µM] | –
65 | CCc1nn(CC(=O)O)c(=O)c2ccccc12 | – | inconclusive: 89.1 µM [inhibitor, single point]
66 | O=C(Cn1cc(SCc2ccc(Br)cc2)c2ccccc21)N1CCCCC1 | inactive: -1.83% | –
67 | Cn1nnnc1SCCCNCc1cccc(OCc2ccccc2F)c1 | inactive: -25.1% | –
68 | N#Cc1c(-c2ccccc2)cc(-c2ccco2)c(C#N)c1N | – | inconclusive: 1.12 µM [inhibitor, single point]
69 | CC(C)CN1CCNC(=O)C1CC(=O)NCCc1cnn(-c2ccccc2)c1 (centres undefined) | – | inconclusive: 79.4 µM [inhibitor, partial curve]
70 | CCN1CCC2(CCN(C(=O)c3cc(COc4cc(C)ccc4C)on3)C2)C1 (centres undefined) | – | inconclusive: 89.1 µM [inhibitor, single point]
71 | CCc1ccc(NC(=O)CN2CCN(C3CCCCC3)C(=O)C2=O)cc1 | inactive: -0.0953% [at 12.7 µM] | –
72 | O=C1c2ccccc2C(=O)C1c1ccc(Cl)cc1 | – | active: 44.7 µM
73 | COc1ccc(S(=O)(=O)Oc2ccccc2C(=S)N2CCOCC2)cc1 | – | active: 25.1 µM
74 | CSc1ccc(CN2CCN(Cc3ccc([N+](=O)[O-])cc3)CC2)cc1 | – | active: 31.6 µM
